Some of the results follow. Sequences were assembled here from the parent chain. Inactive controls read about 0.05.
B1: TEV protease; numbered along this chain (parent)
chain: MGESLFKGPRDYNPISSSICHLTNESDGHTTSLYGIGFGPFIITNKHLFRRNNGTLVVQSLHGVFKVKDTTTLQQHLVDGRDMIIIRMPKDFPPFPQKLKFREPQREERICLVTTNFQTKSMSSMVSDTSCTFPSGDGIFWKHWIQTKDGQCGSPLVSTRDGFIVGIHSASNFTNTNNYFTSVPKNFMELLTNQEAQQWVSGWRLNADSVLWGGHKVFMVKPEEPFQPVKEATQL

Variants of: B1
Assay: raw area under fraction-flipped curve 0-4 h after induction (AUC4h, not background-subtracted), DNA-recorder readout of cleavage of the substrate (dimensionless); higher = more cleavage of the substrate by the protease variant
Details: temperature: 34 °C; time window: 0-4 h after rhamnose induction
Description: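 In vivo DNA recorder in E. coli TOP10(DE3) ΔrhaA at 34 °C. Each TEVp single-site mutant (parent TEVp 0) is paired with a single-site variant of the 7-mer TEVs (canonical ENLYFQ|S). The substrate sits between flexible linkers in a Bxb1-sfGFP-TEVs-SsrA fusion, so cleavage stabilises Bxb1 and speeds flipping of a recombination array, read by NGS. The value is the raw area under the fraction-flipped curve over 0-4 h after rhamnose induction (AUC4h), with ≥20 reads per time point. It is not background-subtracted; inactive controls average about 0.047.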
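Further: Bxb1 expression induced with 0.2% (w/v) L-rhamnose at OD600 near 0.5, cultures sampled hourly, flipped fraction per protease–substrate barcode pair counted by paired-end Illumina sequencing.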

Variant | area with substrate ENLYFQA | area with substrate ENLYFQC | area with substrate ENLYFQF | area with substrate ENLYFQG | area with substrate ENLYFQH | area with substrate ENLYFQI | area with substrate ENLYFQK | area with substrate ENLYFQL | area with substrate ENLYFQM | area with substrate ENLYFQR | area with substrate ENLYFQS | area with substrate ENLYFQT | area with substrate ENLYFQW | area with substrate ENLYFQY | area with substrate ENLYFQD | area with substrate ENLYFQN | area with substrate ENLYFQP | area with substrate ENLYFQQ | area with substrate ENLYFQV | area with substrate ENLYFQE
MGESLFKGPRDYNPISSSICHLYNESDGHTTSLYGIGFGPFIITNKHLFRRNNGTLVVQSLHGVFKVKDTTTLQQHLVDGRDMIIIRMPKDFPPFPQKLKFREPQREERICLVTTNFQTKSMSSMVSDTSCTFPSGDGIFWKHWIQTKDGQCGSPLVSTRDGFIVGIHSASNFTNTNNYFTSVPKNFMELLTNQEAQQWVSGWRLNADSVLWGGHKVFMVKPEEPFQPVKEATQL [T23Y] | 0.0978 | 0.0977 | 0.0809 | 0.0919 | 0.0693 | 0.0592 | 0.0689 | 0.0619 | 0.0988 | 0.0633 | 0.0893 | 0.0673 | 0.0664 | 0.068 | – | – | – | – | – | –
MGESLFKGPRDYNPISSSICHLTNESDGHTTSIYGIGFGPFIITNKHLFRRNNGTLVVQSLHGVFKVKDTTTLQQHLVDGRDMIIIRMPKDFPPFPQKLKFREPQREERICLVTTNFQTKSMSSMVSDTSCTFPSGDGIFWKHWIQTKDGQCGSPLVSTRDGFIVGIHSASNFTNTNNYFTSVPKNFMELLTNQEAQQWVSGWRLNADSVLWGGHKVFMVKPEEPFQPVKEATQL [L33I] | 0.0754 | 0.0766 | 0.049 | 0.0829 | – | 0.0503 | 0.0669 | 0.0593 | 0.057 | 0.0573 | 0.0844 | 0.0535 | 0.0509 | 0.0406 | 0.0558 | 0.0692 | 0.0656 | 0.0835 | 0.056 | –
MGESLFKGPRDYNPISSSICHLTNESDGHTTSMYGIGFGPFIITNKHLFRRNNGTLVVQSLHGVFKVKDTTTLQQHLVDGRDMIIIRMPKDFPPFPQKLKFREPQREERICLVTTNFQTKSMSSMVSDTSCTFPSGDGIFWKHWIQTKDGQCGSPLVSTRDGFIVGIHSASNFTNTNNYFTSVPKNFMELLTNQEAQQWVSGWRLNADSVLWGGHKVFMVKPEEPFQPVKEATQL [L33M] | 0.0633 | 0.0907 | 0.0564 | – | 0.0638 | 0.0605 | 0.0587 | 0.059 | 0.0805 | 0.0511 | 0.0778 | 0.0417 | – | 0.0685 | – | 0.053 | – | – | 0.0504 | –
MGESLFKGPRDYNPISSSICHLTNESCGHTTSLYGIGFGPFIITNKHLFRRNNGTLVVQSLHGVFKVKDTTTLQQHLVDGRDMIIIRMPKDFPPFPQKLKFREPQREERICLVTTNFQTKSMSSMVSDTSCTFPSGDGIFWKHWIQTKDGQCGSPLVSTRDGFIVGIHSASNFTNTNNYFTSVPKNFMELLTNQEAQQWVSGWRLNADSVLWGGHKVFMVKPEEPFQPVKEATQL [D27C] | 0.0931 | 0.133 | – | 0.0882 | 0.0742 | 0.0533 | 0.0694 | 0.0567 | 0.0808 | 0.0409 | 0.0974 | 0.041 | 0.055 | – | 0.065 | 0.0627 | 0.0602 | – | 0.0662 | –
MGESLFKGPRDYNPISSSICHLTNESDGCTTSLYGIGFGPFIITNKHLFRRNNGTLVVQSLHGVFKVKDTTTLQQHLVDGRDMIIIRMPKDFPPFPQKLKFREPQREERICLVTTNFQTKSMSSMVSDTSCTFPSGDGIFWKHWIQTKDGQCGSPLVSTRDGFIVGIHSASNFTNTNNYFTSVPKNFMELLTNQEAQQWVSGWRLNADSVLWGGHKVFMVKPEEPFQPVKEATQL [H29C] | 0.126 | 0.123 | – | 0.119 | – | 0.068 | – | 0.044 | 0.0903 | 0.0646 | 0.111 | 0.0833 | 0.0615 | 0.0972 | 0.0924 | 0.07 | 0.0714 | – | 0.0629 | –
MGESLFKGPRDYNPISSSICHLTNESDGNTTSLYGIGFGPFIITNKHLFRRNNGTLVVQSLHGVFKVKDTTTLQQHLVDGRDMIIIRMPKDFPPFPQKLKFREPQREERICLVTTNFQTKSMSSMVSDTSCTFPSGDGIFWKHWIQTKDGQCGSPLVSTRDGFIVGIHSASNFTNTNNYFTSVPKNFMELLTNQEAQQWVSGWRLNADSVLWGGHKVFMVKPEEPFQPVKEATQL [H29N] | 0.0873 | 0.0908 | 0.14 | 0.0896 | 0.0806 | 0.06 | 0.0503 | – | 0.0884 | 0.069 | 0.0974 | 0.064 | 0.0621 | 0.0857 | – | 0.0663 | 0.0422 | – | 0.0582 | 0.052
MGESLFKGPRDYNPISSSICHPTNESDGHTTSLYGIGFGPFIITNKHLFRRNNGTLVVQSLHGVFKVKDTTTLQQHLVDGRDMIIIRMPKDFPPFPQKLKFREPQREERICLVTTNFQTKSMSSMVSDTSCTFPSGDGIFWKHWIQTKDGQCGSPLVSTRDGFIVGIHSASNFTNTNNYFTSVPKNFMELLTNQEAQQWVSGWRLNADSVLWGGHKVFMVKPEEPFQPVKEATQL [L22P] | 0.0115 | 0.0438 | 0.0406 | 0.0421 | 0.0578 | 0.0525 | 0.0477 | 0.0412 | 0.0487 | 0.0447 | 0.045 | 0.0412 | 0.0411 | 0.0287 | – | 0.0414 | 0.0046 | 0.0389 | 0.0415 | 0.0196
MGESLFKGPRDYNPISSSICHLTNGSDGHTTSLYGIGFGPFIITNKHLFRRNNGTLVVQSLHGVFKVKDTTTLQQHLVDGRDMIIIRMPKDFPPFPQKLKFREPQREERICLVTTNFQTKSMSSMVSDTSCTFPSGDGIFWKHWIQTKDGQCGSPLVSTRDGFIVGIHSASNFTNTNNYFTSVPKNFMELLTNQEAQQWVSGWRLNADSVLWGGHKVFMVKPEEPFQPVKEATQL [E25G] | 0.074 | 0.106 | – | 0.0875 | 0.0676 | 0.0584 | 0.0563 | 0.0591 | 0.0823 | 0.06 | 0.089 | 0.0605 | 0.0648 | 0.0668 | 0.0667 | 0.0748 | 0.0462 | 0.0655 | 0.0636 | –
